# Data: PubChem BioAssay AID602310 (National Center for Advancing Translational Sciences (NCATS), 2012)
# Hit rate of the full screen: of about 410,000 compounds, about 310 (0.076%) were called active. Inconclusive results, whose numbers are uncertain, are shown with a selection of clear calls. The call rests on the fitted dose curve; in most records, active means well fitted curve in the direction sought with a large enough effect; inconclusive means small, poorly fitted or top-dose-only effect; inactive means flat fitted curve, though single readings scatter. Potencies beside an inconclusive call are fits to weak or partial responses and may not hold up.
# Biological target: DNA dC->dU-editing enzyme APOBEC-3G (Homo sapiens) (UniProt Q9HC16)
# Chain of UniProt Q9HC16 (Q9HC16 whole entry, looked up): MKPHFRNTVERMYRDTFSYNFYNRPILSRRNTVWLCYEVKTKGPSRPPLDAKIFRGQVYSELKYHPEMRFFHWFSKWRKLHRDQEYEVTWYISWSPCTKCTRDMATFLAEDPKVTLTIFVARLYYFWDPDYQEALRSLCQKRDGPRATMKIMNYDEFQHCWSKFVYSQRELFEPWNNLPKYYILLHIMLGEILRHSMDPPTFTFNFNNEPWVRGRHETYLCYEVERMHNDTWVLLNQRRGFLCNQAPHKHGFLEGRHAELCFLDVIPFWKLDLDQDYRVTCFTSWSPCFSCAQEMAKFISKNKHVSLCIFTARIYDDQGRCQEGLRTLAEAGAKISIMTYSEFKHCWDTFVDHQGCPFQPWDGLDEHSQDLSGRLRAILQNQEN
# Test: qHTS for Inhibitors of Vif-A3G Interactions: qHTS; further: nearly all actives have a fitted effect of over 60% in size
# Conditions: HeLa A3G-eYFP + Vif (tagged APOBEC3G with the HIV-1 protein that degrades it), YFP fluorescence, overnight; series mostly up to 46.1 µM
# From the text: The recent discovery and characterization of host restriction factors, which provide a potent defense to invading retroviruses, has provided new targets for antiviral drug development. APOBEC3G (A3G) and APOBEC3F (A3F) are potent cytidine deaminases that block HIV-1 replication; HIV-1 expresses the Vif protein, which counteracts A3G and A3F by binding to them and inducing their proteasomal degradation. The Vif-A3G and Vif-A3F interactions provide two potential targets for development of small molecules which can interfere with the ability of Vif to degrade A3G or A3F. […] To identify inhibitors that can interfere with Vif mediated degradation of A3G and A3F, we have developed Hela cell lines that stably express A3G or A3F tagged with eYFP at the C-terminal end (A3G-eYFP or A3F-eYFP, respectively) and Vif. In the absence of an inhibitor, Vif induces degradation of A3G-eYFP and A3F-eYFP, and the cells are not fluorescent. In the presence of an inhibitor, it is expected that Vif will be unable to degrade A3G-eYFP and/or A3F-eYFP, resulting in an increase in yellow fluorescence. In this assays Vif A3G was screened against the Molecular Library Small Molecule Repository (MLSMR). NIH Chemical Genomics Center [NCGC] NIH Molecular Libraries Probe Centers Network [MLPCN] MLPCN Grant: MH093245 Assay Submitter (PI): Vinay Pathak, National Cancer Institute
# 5 uL of 700 cells/well of A3G-YFP cells are dispensed into black, clear bottom plates. The plates are incubated overnight at 37 deg C. 23 nL of compounds are added by pintool. The plates are incubated overnight at 37 deg C and then read on the TTP Acumen (Ex 488/ Em 500-530).
# Potency means the concentration at half of the fitted maximal effect; tags describe the fitted curve by direction and shape.
row,Compound,Potency
1,COc1ccc(C2C(C#N)=C(N)Nc3onc(C(C)(C)C)c32)c(OC)c1 (stereo not given),"inconclusive: 22.4 µM [inhibitor, single point]"
2,COC(=O)c1sc2ccccc2c1-n1cccc1C(=O)C(=O)Nc1ccccc1,"inconclusive: 15.8 µM [inhibitor, single point]"
3,CC(=O)Nc1cccc(NC(=O)C2(c3cccs3)CCOCC2)c1,inactive
4,CC1=C(C(=O)OCc2ccc3nsnc3c2)N2C(=O)[C@@H](NC(=O)OCc3ccc4nsnc4c3)[C@H]2SC1,inactive
5,CCOc1ccc(S(=O)(=O)n2cnc3cc(C)c(C)cc32)cc1,"inconclusive: 11.2 µM [inhibitor, partial curve]"
6,Nc1nc(Cl)cc(N2CCC(c3cc(-c4ccc(Cl)cc4Cl)n[nH]3)CC2)n1,inactive
7,C(=C\c1nccc2ccccc12)/c1ccc(N2CCOCC2)cc1,inactive
8,CC(c1ccc(O)cc1)(c1ccc(O)cc1)c1ccc(CCBr)cc1,"inconclusive: 3.16 µM [inhibitor, full curve, poor fit]"
9,COc1cccc(C2CC(=O)Nc3cc(C)c(C)cc32)c1 (stereo not given),"inconclusive: 10 µM [inhibitor, partial curve, poor fit]"
10,CC(C)CCN(CCC(C)C)CC(O)Cn1c2ccccc2c(=O)c2ccccc21 (stereo not given),inactive
11,Oc1c(CN2CCN(c3ccccc3)CC2)cc(Br)c2cccnc12,inactive
12,Cc1ccc(NC(=O)CSc2nc(-c3cccs3)cc(C(F)(F)F)n2)cc1C,"inconclusive: 2.51 µM [inhibitor, full curve, poor fit]"
13,CCN(CC)c1ccc(/C=N/NC(=O)Cc2cccs2)c(O)c1,"inconclusive: 11.2 µM [inhibitor, single point]"
14,CC1=NN(c2ccc(C)cc2)C(=O)/C1=C\C=C\c1ccccc1,"inconclusive: 35.5 µM [inhibitor, single point]"
15,Cc1ccccc1C1C(C#N)=C2N=C(N)c3c(sc4c3CCCCC4)N2C2=C1C(=O)CC(C)(C)C2 (stereo not given),"inconclusive: 25.1 µM [inhibitor, single point]"
16,Cc1occc1C(=O)Nc1c(F)c(F)c(F)c(F)c1F,"inconclusive: 20 µM [inhibitor, single point]"
17,O=C(CN1C(=O)/C(=C/c2ccccc2F)Sc2ccccc21)NCc1cccnc1,"inconclusive: 3.16 µM [inhibitor, single point]"
18,Cc1ccccc1S(=O)(=O)Oc1cccc2c(O)cccc12,"inconclusive: 4.47 µM [inhibitor, full curve, poor fit]"
19,CCSc1nnc2c(n1)OC(c1ccc(OCC(=O)O)cc1)Nc1ccccc1-2 (stereo not given),"inconclusive: 22.4 µM [inhibitor, single point]"
20,CCOCCC(=O)Nc1ccc2c(c1)c(=O)n(C)n2CC=C(C)C,"inconclusive: 7.94 µM [inhibitor, partial curve, poor fit]"
21,N#CC1=C(N)Oc2ccc3ccc(O)cc3c2C1c1ccsc1 (stereo not given),"inconclusive: 12.6 µM [inhibitor, partial curve, poor fit]"
22,COC(=O)c1ccccc1NC(=O)c1ccccc1SC,inactive
23,COC(=O)CSc1nc2ccc(C)cc2cc1C#N,"inconclusive: 35.5 µM [inhibitor, single point]"

row,Compound,Potency
1,COc1cc(/C=C/c2nc3ccccc3c(=O)[nH]2)cc(OC)c1OC,"inconclusive: 1.58 µM [inhibitor, full curve, poor fit]"
2,CCCn1nc(NC(=O)c2cccs2)c2cc3cc(OC)ccc3nc21,"inconclusive: 35.5 µM [inhibitor, single point]"
3,COc1cc(NC(=O)C2C3CCC(O3)C2C(=O)O)cc(OC)c1 (stereo not given),"inconclusive: 35.5 µM [inhibitor, single point]"
4,COc1ccc(/C=C/C(=O)c2ccc([N+](=O)[O-])o2)cc1OC,active: 7.94 µM
5,C#Cc1cccc(Nc2nc(NCc3ccccc3OC)nc3ccsc23)c1,inactive
6,CC(C)(C)c1ccc(C(=O)Nc2ccc(-c3nc4cc(Cl)ccc4o3)cc2)cc1,inactive
7,O=C(Nc1ccc(N2CCCC2)cc1)c1cccc(F)c1,"inconclusive: 35.5 µM [inhibitor, partial curve, poor fit]"
8,Cc1ccc2c(c1)c(=O)c(C(=O)c1ccncc1)cn2CC(=O)Nc1ccc(C(C)C)cc1,"inconclusive: 35.5 µM [inhibitor, partial curve, poor fit]"
9,O=C(Cn1ncc(Cl)c(Cl)c1=O)NCC1CCCCC1,"inconclusive: 15.8 µM [inhibitor, partial curve, poor fit]"
10,N#CC1(NC(=O)Cn2ncc(Cl)c(Cl)c2=O)CCCCC1,"inconclusive: 22.4 µM [inhibitor, single point]"
11,COc1cccc([C@@H]2Nc3ccc(C(=O)O)cc3[C@@H]3C=CC[C@@H]32)c1OC,inactive
12,Cc1ccc(NC(=S)c2nc3ccccc3[nH]2)c(C)c1,"inconclusive: 20 µM [inhibitor, single point]"
13,O=C(N/N=C\c1cc(Br)cs1)C1COc2ccccc2O1 (stereo not given),"inconclusive: 25.1 µM [inhibitor, single point]"
14,CC(=O)c1cccc(NC(=O)C2C3C=CC(C3=C(c3ccccc3)c3ccccc3)C2C(=O)O)c1 (stereo not given),inactive
15,Cc1ccc2cc3c(N)[nH]nc3nc2c1,inactive
16,Cc1ccc(Nc2nc(-c3ccccc3)c(CC(=O)O)s2)cc1,"inconclusive: 28.2 µM [inhibitor, single point]"
17,Cc1ccc2c(c1)[nH]c1c(=O)n(Cc3ccco3)cnc12,inactive
18,CN1CCC(OC(=O)c2cc3cc(Cl)cc(Cl)c3oc2=O)CC1,active: 11.2 µM
19,COc1cc(NC(=S)NC(=O)c2ccc(C)cc2C)ccc1NC(=O)c1cccs1,inactive
20,O=C(N/N=C/c1cccs1)c1n[nH]c2c1CCC2,"inconclusive: 7.94 µM [inhibitor, partial curve]"
21,O=C(/C=C/c1cn(CC(O)CN2CCCCCC2)c2ccccc12)c1ccc(Br)cc1 (stereo not given),"inconclusive: 17.8 µM [inhibitor, single point]"
22,COc1cccc(OC)c1/C(O)=C(\C#N)c1nc2ccccc2[nH]1,"inconclusive: 35.5 µM [inhibitor, single point]"
